Laboratory results taken from the supplement of paper PMC3334620.
The full ranking holds about 33,000 sequences; the median of “E-score (-0.5 to 0.5)” is about -0.017, and the highest 2% start at about 0.3. This is one part of the list.

What follows are sequences tested against T1, Sut1 (UniProt P53032) (assay: PBM E-score (8-mer binding enrichment) (E-score (-0.5 to 0.5)); higher = stronger / more preferred TF binding; most listed sequences are background and not binding sites). Details: protein concentration: 200 nM; construct: GST-full length.
T1 sequence: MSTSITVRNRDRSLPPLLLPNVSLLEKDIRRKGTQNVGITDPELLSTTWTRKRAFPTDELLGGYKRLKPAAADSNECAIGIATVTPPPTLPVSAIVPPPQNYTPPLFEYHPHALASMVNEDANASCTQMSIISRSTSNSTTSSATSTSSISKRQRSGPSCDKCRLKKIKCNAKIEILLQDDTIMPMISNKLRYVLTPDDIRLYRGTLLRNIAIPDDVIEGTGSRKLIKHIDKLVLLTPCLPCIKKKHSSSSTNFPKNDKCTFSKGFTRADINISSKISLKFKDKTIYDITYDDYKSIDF
Method in brief: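 Each ungapped eight-base word and its reverse complement, pooled, received an E-score from the Universal PBM Analysis Suite. Underlying scans, normalised with masliner, recorded fluorescent anti-GST bound to GST-tagged yeast transcription factors. These were applied at about 100-200 nM to universal all-10-mer Agilent arrays double-stranded by primer extension.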

Sequence | PBM E-score
CCGAGCGA | 0.117
CAAATGCC | -0.00698
AAGACCCG | -0.11
AATAGGCT | 0.046
GGGATAAC | 0.0828
AACAGCGC | -0.178
ACAACTAG | 0.0486
GGTTCCAA | 0.194
AAGCCTCA | -0.00984
TCTCCTAA | 0.113
ACTCCTCC | -0.0972
AGGCATGA | -0.187
TCGAAAAA | 0.206
ACGTAAAC | -0.161
TACTTCGA | 0.196
AAACCGTC | -0.0399
AATGCTAT | 0.0359
GGGCTAGA | -0.179
CAGCCTTC | -0.18
AGTCCCGC | -0.152
ACGTTGGA | -0.147
GTACTGGA | -0.0147
GAGTCTGC | -0.144
AAGCTGTC | -0.141
CCCTAACA | 0.071

Sequence | PBM E-score
GAACGTAA | 0.163
AGGGACGC | -0.212
ACCTGCGC | 0.0264
AGGCATCG | -0.203
CCAAGTAC | -0.134
AGGCCCTC | -0.127
AACGAGAT | 0.0198
GATTCTCA | 0.0723
AGAACGTC | -0.0575
AAAACACT | 0.118
CTTCACTC | 0.0242
GGCTTACC | -0.188
CGTTAAGC | 0.125
GAGGGCCA | -0.136
AAAACGCC | 0.16
ACCTCTTC | -0.0745
GCTATCTA | -0.0136
CTGTTGCA | 0.00754
AGACTGGC | -0.272
GACCTCAC | -0.0574
CATCGTTA | 0.0603
ATTCATTA | 0.284
CATTGTGG | -0.11
TCCCAGCA | -0.0226
CGGTATAA | 0.109

Sequence | PBM E-score
CGGTTAAC | -0.0549
ATATCCTG | -0.11
AGGCCTAC | -0.148
AAGCCGTG | -0.141
CGGGTTTC | 0.0845
AACAGATT | 0.0949
GTCATGGA | -0.161
TAGCCGCA | -0.119
AGAAAACA | 0.229
ACAAATGC | 0.0432
CGGAAACC | 0.139
AAAGGACA | 0.0759
AACGGGGT | 0.0207
GTAAAGAC | 0.121
CCCTCAAA | -0.0431
AGGGATCA | -0.192
ATTAATTC | 0.298
AGCAACCC | -0.215
GTGAGAAC | -0.0779
CACTGAGC | -0.171
GCCCTGAC | -0.27
TACACTGA | -0.0304
GAAGCGAA | 0.00568
AGTATCGG | 0.176
ACATTCGT | 0.078

Sequence | PBM E-score
ACAGACTG | -0.186
TCACACGA | -0.0807
ATGATTAA | 0.225
ACAAAGGA | 0.0444
CAATTAGG | 0.0497
CTCCAATA | 0.171
ATCGGCCG | -0.0616
CACCTATA | -0.0952
AGACGTCG | -0.129
GACGGTAA | -0.0997
GATGGCGA | -0.0183
AGAATACA | 0.117
AGGGCAGG | -0.195
CGGGAGGA | -0.122
ATCTTATG | -0.106
ACCTGGCA | -0.116
AAATTTCA | 0.00137
ACTGGGTA | -0.253
AATATCGT | 0.175
GTAGACCA | -0.179
ATTGGATA | 0.152
CGTTTCAA | 0.115
TGCTAACA | 0.0592
ACCAGTAT | 0.0585
GGGCACCC | -0.266

Sequence | PBM E-score
TACCACTA | -0.118
AAGAAACA | 0.15
ATCAAATC | 0.138
CAGGACAG | -0.0623
GAGGCCAA | -0.0474
AATTGAGA | 0.121
CCGATTAC | 0.12
CGCCCGTA | -0.214
CGCCTCGC | -0.191
ATTTATAG | 0.178
AATGATCG | 0.0864
AGCTTGTC | -0.275
ACCACGAG | -0.0958
GCACGGCC | -0.282
ATGGGACA | -0.334
ACTTACTC | 0.0391
CATTAGAA | 0.179
ACATTAGC | -0.0982
ACTATGAT | 0.144
CATAAGTA | -0.0995
CAAACTGA | -0.00762
AATGGTAA | 0.206
CGACCGCG | -0.108
ACACACCT | 0.0728
GAAATAAA | 0.261

Sequence | PBM E-score
CGCCTGAG | -0.194
ATATTACG | 0.273
CGGACGCA | -0.0415
CCACCCCA | -0.221
GTGTGCAA | -0.123
ACGATGAG | 0.063
CGATCACA | 0.239
GAGACATA | 0.173
GCATTCAA | 0.142
GCTGTTGA | 0.0266
CCCTAATA | -0.0819
CGTTCTAG | 0.0245
CTAGACAG | -0.138
ACTCCCAA | -0.00149
CTCGAAAG | 0.0872
ACTAGTAC | -0.0353
GAGACCAA | 0.163
CTACAGCA | -0.0706
CAATGACA | 0.0479
GATCTTCA | 0.214
GCCTTTTA | -0.029
ACTAAAAA | 0.353
AATTAAGA | 0.136
CAGAAATG | -0.102
GGGTGAGA | -0.216

Sequence | PBM E-score
CGGTTCAG | -0.168
CTCCCGAC | -0.024
AAGGCTTC | 0.00803
GCGCAGAC | -0.0966
CCTTTCAA | 0.11
CCAGAAGA | -0.0584
ACGCGATG | -0.0333
ACCAAACA | 0.122
CACCACAG | -0.0613
CCCTGACC | -0.149
CGACTCTA | -0.169
GAGAGATA | 0.059
CCTACAAG | -0.166
ATGATAGA | 0.106
ACAGCCCC | -0.239
CCCTCAAG | -0.262
AGGATCAC | -0.149
CTCGGTGA | 0.0148
CTGACGTA | -0.128
GTATAGAA | 0.0544
CCATCAGA | -0.213
ACCTCAAC | 0.024
CAAAGAAC | 0.135
AGTGATCG | -0.0497
ATGAACGG | -0.0206

Sequence | PBM E-score
ACTGTATA | 0.13
CTAGCGTC | -0.206
CAACCTAA | 0.039
GAAAGGCA | 0.134
GGAGTGGA | 0.0666
TACGTCCA | -0.143
CATGAAAC | -0.0169
ATCTGTAC | 0.181
ACGGCGAA | 0.0457
GTCGACGA | -0.139
CCCTGGTA | -0.336
TGGACGAA | -0.0708
CGTTGAGC | -0.0678
ACGCCCGT | -0.00657
ATACCATA | 0.167
CGACACCG | -0.118
AGCTATGG | -0.158
CATTAAGG | 0.0414
AAATAACT | 0.228
CTGGTGCC | -0.172
GCTCGACC | -0.118
TAAAATAA | 0.213
ACAGTAAT | 0.149
CTGCTTTA | 0.247
CACCTGAA | 0.0358

Sequence | PBM E-score
GGACAGTA | 0.184
CTACCGGA | 0.222
CACCTATC | -0.0662
TCGGTTCA | 0.0892
GATGCTCA | -0.00757
AATCTGGC | -0.128
ATTCTGCG | -0.0829
AAGTCGCG | 0.0992
AACGAGCG | -0.0329
CAATCAAC | 0.185
ACTTGTCG | -0.0426
GGAAACCA | 0.00587
GGCCTGAA | -0.266
AAATGTAA | 0.206
AGTTTCTC | 0.124
ACTCTACG | -0.0563
GAAGGACA | 0.0334
ACAGCGTA | 0.073
GATCAGAA | -0.128
